From the supplement of paper PMC8728848
This is one part of the list.

Legend:
Experiment in all cases: glycan array binding signal (z-score within array); higher = stronger binding
Conditions in all cases: glycan notation: IUPAC condensed, linker removed
[1] = molecular target: Neu5Ac(a2-6)GlcNAc(b1-4)GlcNAc(b1-4)GlcNAc
In short: (§1)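 The binding signal is a Z-score computed within each array and averaged over linkers. Arrays of the same protein sequence at different concentrations or buffers were also averaged together. Data originate from 3228 arrays in the Consortium for Functional Glycomics database, kept only where the protein sequence was available.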

[2] = molecular target: Neu5Ac(a2-8)Neu5Ac
In short: as §1

[3] = molecular target: Neu5Ac(a2-8)Neu5Ac(a2-3)Gal(b1-3)GalNAc(b1-4)[Neu5Ac(a2-3)]Gal(b1-4)Glc
In short: as §1

[4] = molecular target: Neu5Ac(a2-8)Neu5Ac(a2-3)Gal(b1-3)GalNAc(b1-4)[Neu5Ac(a2-8)Neu5Ac(a2-3)]Gal(b1-4)Glc
In short: as §1

[5] = molecular target: Neu5Ac(a2-8)Neu5Ac(a2-3)Gal(b1-4)Glc
In short: as §1

[6] = molecular target: Neu5Ac(a2-8)Neu5Ac(a2-3)Gal(b1-4)GlcNAc
In short: as §1

[7] = molecular target: Neu5Ac(a2-8)Neu5Ac(a2-3)[Gal(b1-3)GalNAc(b1-4)]Gal(b1-4)Glc
In short: as §1

[8] = molecular target: Neu5Ac(a2-8)Neu5Ac(a2-3)[GalNAc(b1-4)]Gal(b1-4)Glc
In short: as §1

[9] = molecular target: Neu5Ac(a2-8)Neu5Ac(a2-8)Neu5Ac
In short: as §1

[10] = molecular target: Neu5Ac(a2-8)Neu5Ac(a2-8)Neu5Ac(a2-3)Gal(b1-4)Glc
In short: as §1

[11] = molecular target: Neu5Ac(a2-8)Neu5Ac(a2-8)Neu5Ac(a2-3)[Gal(b1-3)GalNAc(b1-4)]Gal(b1-4)Glc
In short: as §1

[12] = molecular target: Neu5Ac(a2-8)Neu5Ac(a2-8)Neu5Ac(a2-3)[GalNAc(b1-4)]Gal(b1-4)Glc
In short: as §1

[13] = molecular target: Neu5Ac(a2-8)Neu5Ac(a2-8)Neu5Ac(a2-8)Neu5Ac(a2-3)[GalNAc(b1-4)]Gal(b1-4)Glc
In short: as §1

[14] = molecular target: Neu5Ac(a2-8)Neu5Gc(a2-3)Gal(b1-4)GlcNAc
In short: as §1

[15] = molecular target: Neu5Ac(b2-6)Gal(b1-4)GlcNAc
In short: as §1

[16] = molecular target: Neu5Ac(b2-6)GalNAc
In short: as §1

[17] = molecular target: Neu5Ac9Ac(a2-3)Gal(b1-3)GlcNAc
In short: as §1

[18] = molecular target: Neu5Ac9Ac(a2-3)Gal(b1-4)GlcNAc
In short: as §1

[19] = molecular target: Neu5Ac9Ac(a2-6)Gal(b1-4)GlcNAc
In short: as §1

[20] = molecular target: Neu5Gc(a2-3)Gal(b1-3)GlcNAc
In short: as §1

[21] = molecular target: Neu5Gc(a2-3)Gal(b1-3)[Fuc(a1-4)]GlcNAc
In short: as §1

[22] = molecular target: Neu5Gc(a2-3)Gal(b1-4)Glc
In short: as §1

[23] = molecular target: Neu5Gc(a2-3)Gal(b1-4)GlcNAc
In short: as §1

[24] = molecular target: Neu5Gc(a2-3)Gal(b1-4)GlcNAc(b1-3)Gal(b1-4)GlcNAc(b1-2)Man(a1-3)[Neu5Gc(a2-3)Gal(b1-4)GlcNAc(b1-3)Gal(b1-4)GlcNAc(b1-2)Man(a1-6)]Man(b1-4)GlcNAc(b1-4)GlcNAc
In short: as §1

[25] = molecular target: Neu5Gc(a2-3)Gal(b1-4)[Fuc(a1-3)]GlcNAc
In short: as §1

[26] = molecular target: Neu5Gc(a2-6)Gal(b1-4)GlcNAc
In short: as §1

[27] = molecular target: Neu5Gc(a2-6)GalNAc
In short: as §1

[28] = molecular target: Neu5Gc(a2-8)Neu5Ac(a2-3)Gal(b1-4)GlcNAc
In short: as §1

[29] = molecular target: Neu5Gc(a2-8)Neu5Gc(a2-3)Gal(b1-4)GlcNAc
In short: as §1

[30] = molecular target: Neu5Gc(a2-8)Neu5Gc(a2-3)Gal(b1-4)GlcNAc(b1-3)Gal(b1-4)GlcNAc
In short: as §1

[31] = molecular target: Neu5Gc(a2-8)Neu5Gc(a2-6)Gal(b1-4)GlcNAc
In short: as §1

[32] = molecular target: Neu5Gc(b2-6)Gal(b1-4)GlcNAc
In short: as §1

B1: CpGal16 (Clavelina picta) (protein)
chain: MAKMITNYVGKRIECIMVATDMMSTVFSLASATGDLPFYINFRQRENSIVMNTRVHGKWQYEKSQSSGGMNFYEPFRLVVEVRPSVFKVTVSTMGEEDGITFNLQYSQITIKPDEIVAMHLGYCNLRSELLVTDL
[1]
  glycan array binding signal (z-score): -0.261
[2]
  glycan array binding signal (z-score): -0.331
[3]
  glycan array binding signal (z-score): -0.355
[4]
  glycan array binding signal (z-score): -0.255
[5]
  glycan array binding signal (z-score): -0.512
[6]
  glycan array binding signal (z-score): -0.231
[7]
  glycan array binding signal (z-score): -0.334
[8]
  glycan array binding signal (z-score): -0.459
[9]
  glycan array binding signal (z-score): -0.39
[10]
  glycan array binding signal (z-score): -0.298
[11]
  glycan array binding signal (z-score): -0.334
[12]
  glycan array binding signal (z-score): -0.487
[13]
  glycan array binding signal (z-score): -0.464
[14]
  glycan array binding signal (z-score): -0.386
[15]
  glycan array binding signal (z-score): -0.501
[16]
  glycan array binding signal (z-score): -0.514
[17]
  glycan array binding signal (z-score): -0.346
[18]
  glycan array binding signal (z-score): -0.45
[19]
  glycan array binding signal (z-score): -0.515
[20]
  glycan array binding signal (z-score): -0.499
[21]
  glycan array binding signal (z-score): -0.496
[22]
  glycan array binding signal (z-score): -0.324
[23]
  glycan array binding signal (z-score): -0.363
[24]
  glycan array binding signal (z-score): 0.009
[25]
  glycan array binding signal (z-score): -0.415
[26]
  glycan array binding signal (z-score): -0.258
[27]
  glycan array binding signal (z-score): -0.503
[28]
  glycan array binding signal (z-score): -0.348
[29]
  glycan array binding signal (z-score): -0.505
[30]
  glycan array binding signal (z-score): -0.447
[31]
  glycan array binding signal (z-score): -0.317
[32]
  glycan array binding signal (z-score): -0.263
